A lower IC50 marks a more sensitive line; a limit (>, <) means that the fit lies beyond the doses tested. AUC is the area under the same curve over the 256-fold range up to the top dose, as a fraction: 1 means no effect, lower means more sensitive. For some of these results: The top dose, if marked as inferred, comes from the curve model; the source does not state it.
How the values were obtained:
Experiment in all cases: Viability of human cancer cell lines after 72 h of drug (GDSC screen)
Sorafenib = compound: CNC(=O)c1cc(Oc2ccc(NC(=O)Nc3ccc(Cl)c(C(F)(F)F)c3)cc2)ccn1 [Sorafenib]; details: top dose 4 µM
Protocol: (§1)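 Human cancer cell lines in 384-well plates, medium with 10% serum, drug for 72 h over a 256-fold dose range (nine 2-fold or five 4-fold steps up to the top dose). Adherent lines were fixed and stained with the nucleic acid dye Syto60, suspension lines read with resazurin; signal relative to control wells, capped at 0 and 100%. One two-parameter sigmoid per drug and line, fitted in a mixed model over all curves with the slope shared within a line.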

XMD14-99 = compound: COc1cc(N2CCN(C)CC2)ccc1Nc1nc(N)c(C(=O)c2c(Cl)cccc2Cl)s1 [XMD14-99]; details: top dose 10.24 µM; top dose inferred
Protocol: as §1

FH535 = compound: Cc1cc([N+](=O)[O-])ccc1NS(=O)(=O)c1cc(Cl)ccc1Cl [FH535]; details: top dose 32 µM; top dose inferred
Protocol: as §1

A-443654 = compound: Cc1n[nH]c2ccc(-c3cncc(OC[C@@H](N)Cc4c[nH]c5ccccc45)c3)cc12 [A-443654]; details: top dose 1.024 µM; top dose inferred
Protocol: as §1

Dasatinib = compound: Cc1nc(Nc2ncc(C(=O)Nc3c(C)cccc3Cl)s2)cc(N2CCN(CCO)CC2)n1 [Dasatinib]; details: top dose 1.28 µM
Protocol: as §1

AT-7519 = compound: O=C(NC1CCNCC1)c1n[nH]cc1NC(=O)c1c(Cl)cccc1Cl [AT-7519]; details: top dose 10.24 µM; top dose inferred
Protocol: as §1

Cell Line | AUC (Sorafenib) | IC50 (Sorafenib) [nM] | AUC (XMD14-99) | IC50 (XMD14-99) [nM] | AUC (FH535) | IC50 (FH535) [nM] | AUC (A-443654) | IC50 (A-443654) [nM] | AUC (Dasatinib) | IC50 (Dasatinib) [nM] | AUC (AT-7519) | IC50 (AT-7519) [nM]
LU-139 (small cell lung carcinoma, suspension) | 0.9 | > 4000 | 0.918 | > 10200 | 0.756 | 13900 | 0.764 | 477 | 0.982 | > 1280 | 0.4 | 315
AMO-1 (haematopoietic neoplasm, suspension) | 0.954 | > 4000 | 0.856 | 6460 | 0.696 | 6460 | 0.688 | 198 | 0.966 | > 1280 | 0.38 | 314
EW-24 (Ewing sarcoma, semi-adherent) | 0.968 | > 4000 | 0.99 | > 10200 | 0.965 | > 32000 | 0.892 | 951 | 0.846 | 768 | 0.988 | > 10200
LS-123 (large intestine, adherent) | 0.966 | > 4000 | 0.972 | > 10200 | 0.701 | 8960 | 0.761 | 480 | 0.584 | 147 | 0.705 | 2960
ES3 (Ewing sarcoma, adherent) | 0.922 | > 4000 | 0.912 | > 10200 | 0.703 |  | 0.909 | > 1020 | 0.959 | > 1280 | 0.484 | 577
EW-18 (Ewing sarcoma, suspension) | 0.807 | 2230 | 0.934 | > 10200 | 0.74 | 10300 | 0.983 | > 1020 | 0.986 | > 1280 | 0.439 | 432
ETK-1 (biliary tract, adherent) | 0.964 | > 4000 | 0.973 | > 10200 | 0.652 | 5630 | 0.596 | 122 | 0.378 | 35.3 | 0.57 | 1020
COR-L88 (small cell lung carcinoma, adherent) | 0.842 | 3630 | 0.983 | > 10200 | 0.929 | > 32000 | 0.795 | 582 | 0.985 | > 1280 | 0.646 | 1760
TE-9 (oesophagus, adherent) | 0.848 | 3170 | 0.981 | > 10200 | 0.493 | 1910 | 0.786 | 462 | 0.778 | 538 | 0.985 | > 10200
OCI-AML5 (acute myeloid leukaemia, suspension) | 0.706 | 899 | 0.904 | > 10200 | 0.734 | 8630 | 0.671 | 183 | 0.97 | > 1280 | 0.497 | 629
HT (B-cell lymphoma, suspension) | 0.951 | > 4000 | 0.989 | > 10200 | 0.566 | 2990 | 0.755 | 323 | 0.979 | > 1280 | 0.442 | 451
K5 (thyroid, adherent) | 0.964 | > 4000 | 0.988 | > 10200 | 0.629 | 4470 | 0.802 | 478 | 0.604 | 152 | 0.814 | 5270
SW962 (urogenital system, adherent) | 0.963 | > 4000 | 0.975 | > 10200 | 0.605 | 4160 | 0.724 | 328 | 0.557 | 119 | 0.882 | > 10200
P32-ISH (Burkitt lymphoma, suspension) | 0.886 | 2550 | 0.973 | > 10200 | 0.625 | 4040 | 0.614 | 121 | 0.761 | 355 | 0.476 | 560
MPP-89 (mesothelioma, adherent) | 0.905 | > 4000 | 0.982 | > 10200 | 0.729 | 11100 | 0.805 | 711 | 0.428 | 48 | 0.95 | > 10200
JVM-2 (lymphoid neoplasm, suspension) | 0.969 | > 4000 | 0.98 | > 10200 | 0.914 | > 32000 | 0.884 | > 1020 | 0.773 | 614 | 0.742 | 3780
IST-SL2 (small cell lung carcinoma, suspension) | 0.84 | 2720 | 0.912 | > 10200 | 0.715 | 8060 | 0.667 | 185 | 0.704 | 299 | 0.51 | 681
KINGS-1 (glioma, adherent) | 0.964 | > 4000 | 0.976 | > 10200 | 0.804 | 23700 | 0.726 | 363 | 0.582 | 146 | 0.838 | > 10200
IMR-5 (neuroblastoma, adherent) | 0.99 | > 4000 | 0.878 | 7600 | 0.777 | 10800 | 0.745 | 280 | 0.94 | > 1280 | 0.577 | 1000
NB5 (neuroblastoma, adherent) | 0.96 | > 4000 | 0.98 | > 10200 | 0.768 | 12200 | 0.833 | 674 | 0.762 | 463 | 0.884 | > 10200
MHH-NB-11 (neuroblastoma, adherent) | 0.863 | > 4000 | 0.892 | > 10200 | 0.914 | > 32000 | 0.835 | 768 | 0.957 | > 1280 | 0.561 | 954
KE-37 (lymphoblastic leukaemia, suspension) | 0.918 | 3510 | 0.89 | 6960 | 0.721 | 7030 | 0.581 | 101 | 0.989 | > 1280 | 0.19 | 105

Cell Line | AUC (Sorafenib) | IC50 (Sorafenib) [nM] | AUC (XMD14-99) | IC50 (XMD14-99) [nM] | AUC (FH535) | IC50 (FH535) [nM] | AUC (A-443654) | IC50 (A-443654) [nM] | AUC (Dasatinib) | IC50 (Dasatinib) [nM] | AUC (AT-7519) | IC50 (AT-7519) [nM]
NU-DUL-1 (B-cell lymphoma, suspension) | 0.888 | 2990 | 0.955 | > 10200 | 0.671 | 5370 | 0.619 | 127 | 0.276 | 21.6 | 0.252 | 149
D-502MG (glioma, adherent) | 0.921 | > 4000 | 0.962 | > 10200 | 0.502 | 2030 | 0.926 | > 1020 | 0.819 | > 1280 | 0.92 | > 10200
CP66-MEL (melanoma, adherent) | 0.902 | > 4000 | 0.985 | > 10200 | 0.183 | 188 | 0.783 | 498 | 0.632 |  | 0.881 | > 10200
L-540 (Hodgkin lymphoma, suspension) | 0.867 | 2970 | 0.976 | > 10200 | 0.67 | 5590 | 0.773 | 354 | 0.969 | > 1280 | 0.563 | 930
MHH-PREB-1 (B-cell leukaemia, suspension) | 0.875 | 3220 | 0.989 | > 10200 | 0.663 | 5370 | 0.725 | 256 | 0.719 | 308 | 0.325 | 221
SIG-M5 (acute myeloid leukaemia, suspension) | 0.849 | 1940 | 0.907 | 7700 | 0.619 | 3900 | 0.618 | 124 | 0.973 | > 1280 | 0.267 | 171
DJM-1 (skin, adherent) | 0.866 | 3530 | 0.988 | > 10200 | 0.724 | 8610 | 0.781 | 420 | 0.958 | > 1280 | 0.736 | 3000
NCI-H1155 (large cell lung carcinoma, suspension) | 0.954 | > 4000 | 0.993 | > 10200 | 0.953 | > 32000 | 0.83 | 492 | 0.993 | > 1280 | 0.918 | > 10200
NCI-H1836 (small cell lung carcinoma, suspension) | 0.961 | > 4000 | 0.988 | > 10200 | 0.97 | > 32000 | 0.874 | > 1020 | 0.921 | > 1280 | 0.621 | 1430
HT-144 (melanoma, adherent) | 0.853 | 3710 | 0.974 | > 10200 | 0.552 | 2820 | 0.628 | 150 | 0.679 | 270 | 0.957 | > 10200
COLO-800 (melanoma, adherent) | 0.955 | > 4000 | 0.963 | > 10200 | 0.658 | 5410 | 0.987 | > 1020 | 0.962 | > 1280 | 0.636 | 1500
LP-1 (myeloma, suspension) | 0.895 | 3380 | 0.917 | > 10200 | 0.693 | 6240 | 0.935 | > 1020 | 0.974 | > 1280 | 0.445 | 467
NCI-H748 (small cell lung carcinoma, suspension) | 0.942 | > 4000 | 0.957 | > 10200 | 0.952 | > 32000 | 0.735 | 367 | 0.971 | > 1280 | 0.289 | 136
BB49-HNC (head and neck, adherent) | 0.955 | > 4000 | 0.974 | > 10200 | 0.866 | > 32000 | 0.895 | > 1020 | 0.639 | 226 | 0.954 | > 10200
L-1236 (Hodgkin lymphoma, suspension) | 0.939 | > 4000 | 0.989 | > 10200 | 0.89 | 26700 | 0.756 | 302 | 0.992 | > 1280 | 0.883 | 8040
SCC-3 (B-cell lymphoma, suspension) | 0.96 | > 4000 | 0.939 | 9180 | 0.946 | 31000 | 0.773 | 296 | 0.995 | > 1280 | 0.33 | 248
NCI-SNU-5 (stomach, suspension) | 0.966 | > 4000 | 0.989 | > 10200 | 0.893 | > 32000 | 0.893 | > 1020 | 0.989 | > 1280 | 0.847 | 7690
NCI-H211 (small cell lung carcinoma, adherent) | 0.954 | > 4000 | 0.941 | > 10200 | 0.789 | 13700 | 0.771 | 380 | 0.925 | > 1280 | 0.359 | 265
NB(TU)1-10 (neuroblastoma, adherent) | 0.94 | > 4000 | 0.993 | > 10200 | 0.744 | 8900 | 0.925 | > 1020 | 0.968 | > 1280 | 0.949 | > 10200
U-698-M (B-cell leukaemia, suspension) | 0.927 | > 4000 | 0.987 | > 10200 | 0.502 | 2030 | 0.93 | > 1020 | 0.944 | > 1280 | 0.439 | 436
NCI-H1648 (lung adenocarcinoma, adherent) | 0.932 | > 4000 | 0.955 | > 10200 | 0.519 | 2260 | 0.638 | 158 | 0.311 | 22.8 | 0.507 | 669

Source: the supplement of paper PMC4967469
